Laboratory results taken from PubChem BioAssay AID488969 (Vanderbilt High Throughput Screening Facility, 2010).
The full ranking holds about 110,000 compounds; the median of “z-score” is about -0.1, and the highest 2% start at about 2. The list shows a part of the results. Active and inactive are the calls of the source.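 The calls were made as follows: active = z-score in the third read window above 3 or below -3; inactive = the rest.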

biological target: Metabotropic glutamate receptor 8 (Rattus norvegicus) (UniProt P70579); assay: mGluR8 Gi/Go-coupled signaling modulation – cell-based, rat, thallium flux, HTS, primary screen (AID 488969); conditions: HEK293 rat mGluR8, GIRK (G protein-gated inwardly rectifying potassium channel) thallium flux, FluoZin2; at 10 µM; stronger effect = higher value
Sequence of UniProt P70579 (P70579 whole entry, looked up): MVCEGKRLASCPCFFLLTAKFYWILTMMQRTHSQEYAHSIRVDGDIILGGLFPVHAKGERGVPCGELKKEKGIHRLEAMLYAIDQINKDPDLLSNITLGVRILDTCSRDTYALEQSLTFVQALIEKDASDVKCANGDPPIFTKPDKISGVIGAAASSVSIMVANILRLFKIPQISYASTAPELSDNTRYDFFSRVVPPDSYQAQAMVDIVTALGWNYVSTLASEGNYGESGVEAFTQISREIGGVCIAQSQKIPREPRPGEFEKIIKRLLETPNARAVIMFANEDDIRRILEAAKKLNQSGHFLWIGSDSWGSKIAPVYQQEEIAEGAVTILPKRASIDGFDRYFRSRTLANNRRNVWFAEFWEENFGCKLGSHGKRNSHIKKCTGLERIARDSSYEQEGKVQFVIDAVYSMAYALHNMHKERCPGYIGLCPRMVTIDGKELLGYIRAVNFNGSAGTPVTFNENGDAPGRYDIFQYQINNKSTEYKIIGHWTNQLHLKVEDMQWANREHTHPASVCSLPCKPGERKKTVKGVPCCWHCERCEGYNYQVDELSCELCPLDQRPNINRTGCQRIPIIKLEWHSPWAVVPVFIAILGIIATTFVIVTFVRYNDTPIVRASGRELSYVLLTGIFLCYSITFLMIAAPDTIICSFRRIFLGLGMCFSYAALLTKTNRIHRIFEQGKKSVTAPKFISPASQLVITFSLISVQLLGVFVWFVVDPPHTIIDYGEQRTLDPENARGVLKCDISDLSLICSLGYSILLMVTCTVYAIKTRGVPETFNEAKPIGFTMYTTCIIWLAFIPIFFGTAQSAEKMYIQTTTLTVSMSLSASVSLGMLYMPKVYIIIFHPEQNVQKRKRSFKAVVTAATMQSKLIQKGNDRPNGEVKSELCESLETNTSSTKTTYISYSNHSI

| SMILES | z-score |
| --- | --- |
| Clc1ccc2c(c1)C(c1ccccc1Cl)=NCc1nnc(N3CCN(CCSc4ccccc4)CC3)n1-2 | -0.487 |
| C=CCn1c(O)c(/C=C2/C=CC=N2)c(=O)[nH]c1=O | -0.219 |
| O=C(Cn1cnc2sc3c(c2c1=O)CCCC3)NCCCC(=O)N1CCC2(CC1)OCCO2 | 0.113 |
| Cc1cccc(C)c1NC(=O)CN(C)CC(=O)Nc1ccc(C#N)c(Cl)c1 | -0.248 |
| Cc1cc(C)cc(N2C(=O)NC(=O)/C(=C\C=C\c3ccco3)C2=O)c1 | -1.06 |
| OC(Cc1ccccc1)(c1ccccc1)C1CN2CCC1CC2 (centres undefined) | 2 |
| O=P(C(Cl)Cl)(N1CCCCC1)N1CCCCC1 | 0.344 |
| CN(C)c1nc(OCCNC(=O)COc2ccc(Cl)cc2Cl)nc(N2CCCCC2)n1 | 1.08 |
| O=c1[nH]c(=S)n(CCC2=CCCCC2)c(O)c1C=NCc1cccnc1 | 0.0432 |
| CCOC(=O)c1c(NC(NC(=O)CF)C(Cl)(Cl)Cl)sc2c1CCCC2 (centres undefined) | -0.0969 |
| CCOC(=O)C1=C(C)OC(N)=C(C(=O)OCC)[C@@]12C(=O)N(CC(N)=O)c1ccccc12 | 0.472 |
| O=C(O)c1cccc2c1NC(C(=O)O)C1CC(Sc3ccccc3[N+](=O)[O-])C(Cl)C21 (centres undefined) | -0.939 |
| CC12CN3CC(C)(CN(C1)C3c1cccs1)C2 (centres undefined) | -0.401 |
| O=c1c2ccccc2nc(CN2CCCCCC2)n1-c1ccc(F)cc1 | 0.546 |
| Cc1ccc(C(O)(C(=O)NNC(=O)CN2CCN(C)CC2)c2ccc(C)cc2)cc1 | -0.00637 |
| CC(C)NS(=O)(=O)c1ccc(OCC(=O)N2CCN(Cc3ccccc3)CC2)c(Cl)c1 | 0.201 |
| CCOC(=O)c1c(C)n(Cc2ccco2)c2ccc(O)cc12 | -0.0474 |
| OC1(c2ccc(F)cc2)CCNC1 (centres undefined) | 0.138 |
| O=c1[nH]c(=S)n(Cc2ccc(F)cc2)c(O)c1C=NCC1CCCO1 (centres undefined) | -0.258 |
| O=C(O)C1(c2ccc(Cl)cc2)CCC1 | -0.279 |
| C=CCOC(=O)COc1cc(C)cc2oc(=O)c3c(c12)CCC3 | active: -4.07 |
| O=Cc1cn(Cc2cccc(F)c2)c2ccccc12 | 1.17 |
| COCCCn1c(N)c(C(=O)Nc2sc3c(c2C(=O)OC)CCCC3)c2nc3ccccc3nc21 | -0.287 |
| CC/C(=C\C=C\[C@@H]1C=C[C@@H]2CCC[C@H]2[C@@H]1C(=O)c1ccc[nH]1)[C@@H]1O[C@@H]([C@@H](C)C(=O)O)CC[C@@H]1C | 1.6 |
| CN1CCN(c2cc(N3CCNCC3)ccc2[N+](=O)[O-])CC1 | -0.802 |
| O=C1NC(=O)C(Cc2cccs2)C(=O)N1 | 0.09 |
| CC1CC(C)CN(CC(=O)c2ccc(OC(F)F)cc2)C1 (centres undefined) | -0.25 |

| SMILES | z-score |
| --- | --- |
| N#Cc1c(Cl)nc(Cl)c2c1CCN(Cc1ccccc1)C2 | -0.608 |
| Cc1cccc(N2C(=O)NC(=O)/C(=C\c3cnn(-c4ccccc4)c3)C2=O)c1 | -0.3 |
| COc1ccc2c(CCN)c[nH]c2c1 | -0.139 |
| O=C(CSC1c2ccccc2-c2ccccc21)N/N=C/c1ccccc1O | -0.226 |
| CC1(C)COC(Nc2ccc(Cl)cc2)=N1 | -0.195 |
| CCOC(=O)C1=C(C)OC(N)=C(C(=O)OC)C12C(=O)Nc1ccc(Br)cc12 (centres undefined) | -0.318 |
| CC(C)Cc1[nH]c(=O)c(C#N)c2c1CCC2 | 1.1 |
| O=C(Nc1ccc2c(c1)OCO2)c1cn(Cc2ccc(F)cc2)nn1 | -0.577 |
| CC(NCc1ccc(Cl)c(Cl)c1)C(O)c1ccccc1 (centres undefined) | 1.65 |
| CC1CCN(C(=O)c2ccc(N3CC4CC(C3)c3cccc(=O)n3C4)c([N+](=O)[O-])c2)CC1 (centres undefined) | -0.501 |
| Cc1cccc(C)c1NC1=NCCCS1 | -1.27 |
| CN1CCN(C(=O)COc2ccc(S(=O)(=O)N(C)Cc3ccccc3)cc2)CC1 | 0.392 |
| O=[N+]([O-])c1ccc(C2[C@H]3C(c4ccccc4)=NC4(CCCCC4)N23)cc1 (some centres undefined) | -0.0546 |
| COCCNC(=O)c1c(N)n(Cc2ccco2)c2nc3ccccc3nc12 | -0.7 |
| CC(=O)Nc1ccccc1C(=O)OCC(=O)c1ccccc1Cl | -0.431 |
| COC(=O)C1=C(N)Oc2c(c(=O)oc3ccccc23)C1c1cccnc1 (centres undefined) | -2.14 |
| COc1ccc(N2C(=O)NC(=O)/C(=C/c3cccc(OC(=O)c4cccs4)c3)C2=O)cc1Cl | 1.22 |
| Cc1ccc(C(=O)C2CN(C)CC2C(=O)c2ccc(C)cc2)cc1 (centres undefined) | -0.285 |
| CCNc1nc2[nH]c(=O)c3c(c2s1)OC(N)=C(C#N)C3c1cccs1 (centres undefined) | 0.0259 |
| O=c1[nH]c(=O)n(Cc2ccc(F)cc2)c(O)c1C=NCCCn1ccnc1 | -0.632 |
| O=C(c1ccc(N2CC3CC(C2)c2cccc(=O)n2C3)c([N+](=O)[O-])c1)N1CCCCC1 (centres undefined) | -0.241 |
| Cc1ccccc1CS(=O)(=O)Cc1ccc(C(=O)N2CCC3(CC2)OCCO3)o1 | 0.585 |
| c1ccc2c(NC3=NCCS3)cccc2c1 | 0.731 |
| COc1cccc(NP(=O)(Oc2ccc(Cl)cc2)Oc2ccc(Cl)cc2)c1 | -0.0426 |
| Fc1ccc2c(c1)nnn2C1CCN(Cc2c(Cl)cccc2Cl)CC1 | -0.0433 |
| O=C(/C=C/c1ccc2c(c1)OCO2)c1c(O)n(CCC2=CCCCC2)c(=O)[nH]c1=O | -0.285 |
| CCOP(=O)(OCC)C(NC(=O)c1ccccc1C)C(Cl)(Cl)Cl (centres undefined) | 0.173 |
